Data taken from PubChem BioAssay AID1963576 (National Center for Advancing Translational Sciences (NCATS), 2024).
In all, about 46,000 compounds went through this assay and about 60 (0.1%) were called active. Roughly 3% stayed inconclusive and do not appear here. The call rests on the fitted dose curve; in most records, active means well fitted inhibition curve with a large enough effect; inconclusive means small, poorly fitted or top-dose-only effect; inactive means no such curve, though single readings can be large or run the other way. This is one part of the list.

experiment: Primary qHTS assay for Inhibitors of ovarian cancer metastasis using an organotypic tumor microenvironment (TME) model.; further: nearly all actives have a fitted effect of over 65% in size;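 on activity change, negative = inhibition: plate controls were DMSO wells for no effect and tomatine positive control wells for full effect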; conditions: SKOV3ip1-GFP adhesion/invasion on 3D omental model, fluorescence; series mostly up to 45.8 µM; activity change, negative = inhibition: at the top concentration
Summary of the method: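 Adhesion/invasion was scored as fixed GFP-labeled SKOV3ip1 cell counts (488/509 nm), normalized to DMSO and tomatine controls. Cancer cells in serum-free medium, with four compound doses (0.36-46 umol/L), sat 2 hr at RT then 16 hr at 37 C on a 48 hr fibroblast/mesothelial/ECM culture.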

Activity change, negative = inhibition, inactive:
COc1ccc(OC)c(S(=O)(=O)N2CCN(Cc3nc4ccc(C)cc4o3)CC2)c1 2.3%
Cc1ccc(Cn2cc(S(=O)(=O)c3ccc(Cl)cc3)c(=O)c3cc4c(cc32)OCO4)cc1 1.66%
Cc1ccc(CNC(=O)CCc2nc3cccnc3n2Cc2ccccc2)cc1 5.59%
CC(=O)Nc1ccc(NC(=O)C(NS(=O)(=O)c2ccc(Br)s2)c2ccccc2)cc1 (centres undefined) 1.15%
COCc1oc2ccc(NS(=O)(=O)c3ccc(C)cc3)cc2c1C(=O)OC -7.03%
CCCc1ccc(OC(C)c2nc(-c3ccc(-n4cccc4)cc3)no2)cc1 (centres undefined) 0.637%
CN(c1ncccc1CNc1nc(Nc2ccc3c(c2)CC(=O)N3)ncc1C(F)(F)F)S(C)(=O)=O 24.2%
CC(=O)N1CCc2cc(S(=O)(=O)NC(Cc3ccccc3)C(=O)NCc3ccccc3Cl)ccc21 (centres undefined) 11.8%
COc1ccc(-c2cc3ccc(O)c(CN4CCCCC4C)c3oc2=O)cc1OC (centres undefined) -13.2%
CCOc1ccc2nc(N(Cc3cccnc3)C(C)=O)sc2c1 20.4%
O=C1CC(=O)Nc2cc(S(=O)(=O)Nc3ccc(F)cc3Cl)ccc2N1 32.5%
Cc1ccc(OCCSc2nc3ccc(NC(=O)c4ccco4)cc3s2)cc1 -0.0696%
COc1ccc(CCNC(=O)Cn2c(-c3ccc(F)cc3)cc(C(C)=O)c2C)cc1OC -5.08%
CCOC(=O)Cn1c(CN2CCN(c3ccc(OC)cc3)CC2)nc2c1c(=O)[nH]c(=O)n2C 4.4%
Cc1cc(=O)n(Cc2c(F)cccc2Cl)c2c1c(C)nn2C 0.978%
Cn1c(=O)n(C)c2cc(N3CCOCC3)c(NS(=O)(=O)c3ccc(Cl)cc3)cc21 8.17%
Cc1ccc(-n2c(=O)c3c(cnn3C)n(CC(=O)Nc3cccc(C)c3)c2=O)cc1 1.57%
COc1ccccc1N1CCN(C(=O)c2cc3c(-c4ccccc4F)nn(C)c3s2)CC1 -7.06%
CCOC(=O)C1CCN(C(=O)CSc2n[nH]c(-c3ccc(OC)cc3)n2)CC1 -9.05%
CCCC(=O)Nc1cc(-c2nnc3c4ccccc4c(C)nn23)ccc1C -4.65%
COc1ccc2c(c1)CC(C(=O)NCCc1ccc(S(N)(=O)=O)cc1)CO2 (centres undefined) 9.8%
Cc1cc(C)cc(NC(=O)c2cccc(C(=O)Nc3cc(C)cc(C)c3)c2)c1 1.86%
CSc1cccc(NC(=O)CN2C(=O)CCc3cc(S(=O)(=O)N4CCCCC4)ccc32)c1 -25.4%
COc1ccc(-n2c(=O)c3c(c4cc(OC)ccc4n3C)n(CC(=O)N3CCCC3)c2=O)cc1 18.5%
CCOc1ccc(CNC(=O)C2CCCN(c3nn4cc(-c5ccc(F)cc5)nc4s3)C2)cc1 (centres undefined) -0.579%
O=C(COc1ccccc1Cl)N(Cc1cccc(F)c1)C1CCS(=O)(=O)C1 (centres undefined) 22%
CCOc1ccc(/C=C/c2nc(C#N)c(NCCCN(C)C)o2)cc1 -7.36%
O=C(Cn1cnc2c(nc3n2CCCCC3)c1=O)Nc1cccc(C(F)(F)F)c1 5.98%
CCc1ccc2oc(-c3ccc(NC(=O)c4cccc(Cl)c4Cl)cc3)nc2c1 -6.88%
COC(=O)c1ccccc1NC(=O)Cn1c(=O)n(CCCC(=O)NCc2ccccc2Cl)c(=O)c2ccccc21 16.5%
CCOc1ccccc1NC(=O)CSc1ccc2nc(-c3ccccc3)cn2n1 -11.4%
COc1ccc(OC)c(NC(=O)Cn2c(=O)n(-c3ccc(Cl)cc3)c(=O)c3c(C)c(C)sc32)c1 -2.61%
COc1ccc(C(=O)N(c2ccc(C)cc2)S(=O)(=O)c2ccc(C)cc2)cc1 -4.59%
COc1ccc(Cl)cc1NC(=O)C1CCN(S(=O)(=O)c2ccc(F)cc2)CC1 -9.2%
O=C1CC(c2ccc(F)cc2F)c2cc3c(cc2N1)OCO3 (centres undefined) -0.353%
CCOc1cccc(C(=O)N(Cc2ccc(F)cc2)Cc2ccco2)c1 -4.05%
Cc1ccc(N2C(=O)CCSC23C(=O)N(Cc2ccc(F)cc2)c2ccccc23)cc1 (centres undefined) 15.3%
Cc1ccc(NC(=O)c2c(C)nn(-c3ccccc3)c2-n2cccc2)c(Cl)c1 -4.92%
CCOC(=O)c1c(NC(=O)COc2ccc(C(C)(C)C)cc2)sc2c1CCCC2 -28%
CCc1cccc(CC)c1NC(=O)Cn1nnc2sc3c(c2c1=O)CCCC3 2.18%
Cc1cccc(CC(=O)Nc2c(C(=O)Nc3cccc(F)c3)oc3ccccc23)c1 14.2%
CCOC(=O)C1CCN(C(=O)Cn2ncc3c4ccccc4n(Cc4ccccc4)c3c2=O)CC1 -13.2%
Cc1ccc2c(c1)N(C(=O)CCC(=O)NCc1cccs1)CC(C)O2 (centres undefined) 0.649%
COC(=O)c1ccccc1NC(=O)Cn1c(CCC(=O)O)ccc1-c1ccc(C)cc1 6.98%
COc1ccc(CCNC(=O)c2ccc(Cn3c(SCC(=O)NCCC(C)C)nc4cc5c(cc4c3=O)OCO5)cc2)cc1OC 5.27%
COc1cccc(-c2nc3c(C#N)c[nH]n3c2NC2CCC(C)CC2)c1 (centres undefined) 8.88%
CC1=C(C(=O)Nc2cccnc2)C(c2ccccc2Cl)n2nc(-c3ccccc3)nc2N1 (centres undefined) 1.88%
Cc1cc(C)c2oc(-c3cccc(NC(=O)COc4ccccc4Cl)c3C)nc2c1 1.95%
Cc1cccc(Nc2nc3c(S(=O)(=O)c4ccc(Br)cc4)nnn3c3ccsc23)c1C -23.2%
Cc1ccc(NC(=O)CCSc2nc(-c3ccc4c(c3)OCO4)cc(C(F)(F)F)n2)c(C)c1 15.4%
CN(C)c1ccc(CNC(=O)C2CCN(S(=O)(=O)c3ccc4[nH]c(=O)ccc4c3)CC2)cc1 -1.31%
COc1cc(-c2ccno2)ccc1S(=O)(=O)N1CCN(c2ccccc2)CC1 0.796%
Cc1ccc2nc(CN3CCN(S(=O)(=O)c4ccc(C)c(C)c4)CC3)oc2c1 -4.61%
Cc1cc(C(=O)N2CCN(c3cc(Cl)ccc3C)CC2)c2c(C)nn(-c3ccccc3)c2n1 -18.4%
Cn1c(=O)n(C)c2cc(N3CCCC3)c(NC(=O)Nc3ccccc3)cc21 -5.01%
Clc1cccc(-n2ncc3c(N4CCCCCC4)ncnc32)c1 -4.79%
Cc1ccc(Cn2c(=O)n(Cc3ccccc3Cl)c(=O)c3cccnc32)cc1 -0.996%
CCNc1sc(S(C)(=O)=O)nc1S(=O)(=O)c1ccc(C)cc1 -28.3%
Cc1ccc(N2CCN(c3nc4ccccc4c4nnc(C)n34)CC2)c(C)c1 -9.8%
COc1cc(OC)c(NC(=O)c2c(C)oc3ncnc(N4CCCCC4)c23)cc1Cl -8.18%
COC(=O)c1ccccc1NC(=O)Cn1c(=O)n(CCCCC(=O)NCc2ccc3c(c2)OCO3)c(=O)c2ccccc21 2.47%
Cc1ccc(CNC(=O)c2cccc(Nc3nc4ccccc4n4nnnc34)c2)cc1 -1.86%
CCc1ccc(NC(=O)CCNC(=O)Cn2cnc3ccccc3c2=O)cc1 -1.39%
CCOC(=O)c1c(C)[nH]c(C)c1S(=O)(=O)N(C)CC(=O)N1CCN(c2cccc(Cl)c2)CC1 -10.5%
Cc1ccc(C(=O)c2cn(Cc3c(F)cccc3Cl)c3nc(C)ccc3c2=O)cc1 -2.12%
Cc1ccc(CNC(=O)CN2C(=O)COc3ccccc32)cc1 -19%
Cc1cc(C)cc(NC(=O)Cn2c(=O)n(CC(=O)NCCc3ccccc3)c(=O)c3ccccc32)c1 0.615%
COc1ccc(C(=O)Nc2nnc(SCc3cc(=O)n4cc(Cl)ccc4n3)s2)cc1 -3.37%
O=C(NCCc1ccc(Cl)cc1)c1ccc(CS(=O)(=O)Cc2ccc(Cl)cc2)o1 -4.59%
CCC(C(=O)NCc1ccc2c(c1)CCN2C(=O)c1ccc(F)cc1)c1ccccc1 (centres undefined) -8.2%
CCc1ccc(C2CC(=O)c3c([nH]c(C(=O)OCc4ccc(C)cc4)c3C)C2)cc1 (centres undefined) -28.1%
Cc1noc(-c2ccc(-c3noc(-c4ccccc4)n3)cc2)n1 4.79%
CC1CCN(S(=O)(=O)c2ccc3[nH]cc(C(=O)NCc4ccc(F)cc4)c(=O)c3c2)CC1 1.19%
CC(=O)c1cc(-c2ccccc2)n(CCC(=O)Nc2nc3c(C)cccc3s2)c1C -5.77%
CCOc1ccc(CCNC(=O)c2cc(Nc3ccc(C)cc3C)nc3ccccc23)cc1OCC -8.87%

outcome, inactive:
COc1cc(NC(=O)Cn2nnnc2-c2ccccc2F)cc(OC)c1OC
O=C(CCNS(=O)(=O)c1ccc2c(c1)CCN2C(=O)C1CC1)N1CCN(c2cccc(C(F)(F)F)c2)CC1
COc1cc2ccccc2cc1C(=O)N1CCN(c2nc3c(F)cc(F)cc3s2)CC1
Cc1ccc(C)c(OC(=O)CSc2nnc(-c3cccs3)o2)c1
Cc1ccc(NC(=O)C(C)Sc2nc3c(c(=O)[nH]2)CCCC3)cc1Cl (centres undefined)
CCc1ccc(NC(=O)CCCc2nnc3n(CCCOC)c(=O)c4sccc4n23)cc1
COCCn1c(SCC(=O)c2ccc(F)cc2)nc2cc(C(=O)NC3CCCC3)ccc2c1=O
Cc1ccc(N2C(=O)CS(=O)(=O)C23C(=O)N(Cc2ccc(Cl)cc2)c2ccccc23)cc1C (centres undefined)
Cc1ccc(Cc2nc3ccccc3nc2SCC(=O)NCc2ccccc2Cl)cc1
CC1CCN(C(=O)CSc2nnc(NC(=O)Nc3ccccc3)s2)CC1
CS(=O)(=O)c1ncc(Cl)c(C(=O)Nc2c(C(=O)c3ccc(Cl)cc3)oc3ccccc23)n1
Cc1cc(NC(=O)CSc2ncc(C(=O)Nc3ccc(C)c(C)c3)c(=O)n2C)no1
CC(C)C(=O)Nc1nnc(SCc2cc(=O)n3ccccc3n2)s1
O=C(Nc1ccc2oc(-c3ccc4ccccc4c3)nc2c1)c1cc(Cl)ccc1Cl
CC(=O)c1c(C)n(-c2ccc(C)cc2)c2ccc(OC(=O)COc3ccccc3)cc12
CCCCc1nn2c(=O)cc(COC(=O)c3cccs3)nc2s1
Cc1ccc(NC(=O)Cn2ncn3c(cc4ccccc43)c2=O)cc1C
Cc1cccc(C)c1NC(=O)Cn1cc(S(=O)(=O)Cc2ccc(F)cc2)c2ccccc21
Cn1c(=O)c2c(nc(N3CCOCC3)n2Cc2ccccc2)n(C)c1=O
